Test system: H3.3.K27M (26-35)-stimulated CD8+ T cell lines
Assay: IFN-γ ELISA of peptide-stimulated CD8+ T cell lines against peptide-loaded T2 cells
Conditions: compared to T2 cells loaded with H3.3.Non-M (26-35), cap6D or nothing

RMSAPSTGGV [H3.3.K27M (26-35)]
IFN-γ production in response to peptide-loaded T2 target cells: peptide-dose-dependent increases of IFN-γ production
